Laboratory results published in the supplement of paper PMC4967469.
A lower IC50 marks a more sensitive line; where the fit passes the top or lowest dose, that dose stands as a limit. AUC is the area under the same curve over the 256-fold range up to the top dose, as a fraction; it is 1 without any effect and falls as sensitivity rises. For some assays here: The top dose, if marked as inferred, is not printed in the source and was worked back from the curve model. For some assays here: An entry number marks a drug with two screens in the source, which often give different values.

Assays:
Test in all cases: Viability of human cancer cell lines after 72 h of drug (GDSC screen)
Tretinoin = compound: CC1=C(/C=C/C(C)=C/C=C/C(C)=C/C(=O)O)C(C)(C)CCC1 [Tretinoin]; conditions: top dose 10 µM; top dose inferred
Protocol: (§1)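 Human cancer cell lines in 384-well plates, medium with 10% serum, drug for 72 h over a 256-fold dose range (nine 2-fold or five 4-fold steps up to the top dose). Adherent lines were fixed and stained with the nucleic acid dye Syto60, suspension lines read with resazurin; signal relative to control wells, capped at 0 and 100%. One two-parameter sigmoid per drug and line, fitted in a mixed model over all curves with the slope shared within a line.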

GSK690693 = compound: CCn1c(-c2nonc2N)nc2c(C#CC(C)(C)O)ncc(OC[C@H]3CCCNC3)c21 [GSK690693]; conditions: top dose 10.24 µM; top dose inferred
Protocol: as §1

UNC0638 = compound: COc1cc2c(NC3CCN(C(C)C)CC3)nc(C3CCCCC3)nc2cc1OCCCN1CCCC1 [UNC0638]
Protocol: as §1

PI-103 = compound: Oc1cccc(-c2nc(N3CCOCC3)c3oc4ncccc4c3n2)c1 [PI-103]; conditions: top dose 10.24 µM
Protocol: as §1

WH-4-023 = compound: COc1ccc(N(C(=O)Oc2c(C)cccc2C)c2ccnc(Nc3ccc(N4CCN(C)CC4)cc3)n2)c(OC)c1 [WH-4-023]; conditions: top dose 5.12 µM; top dose inferred
Protocol: as §1

BX-795 = compound: O=C(NCCCNc1nc(Nc2cccc(NC(=O)N3CCCC3)c2)ncc1I)c1cccs1 [BX-795]; conditions: top dose 5 µM; top dose inferred
Protocol: as §1

SB-505124 = compound: Cc1cccc(-c2[nH]c(C(C)(C)C)nc2-c2ccc3c(c2)OCO3)n1 [SB-505124]; conditions: top dose 10 µM; top dose inferred
Protocol: as §1

[1] = top dose 20 µM, screen: GDSC drug entry 1236, top dose inferred
[2] = top dose 40 µM, screen: GDSC drug entry 245

Cell Line	AUC (Tretinoin)	IC50 (Tretinoin) [µM]	AUC (GSK690693)	IC50 (GSK690693) [µM]	AUC (UNC0638; [1])	IC50 (UNC0638; [1]) [µM]	AUC (UNC0638; [2])	IC50 (UNC0638; [2]) [µM]	AUC (PI-103)	IC50 (PI-103) [µM]	AUC (WH-4-023)	IC50 (WH-4-023) [µM]	AUC (BX-795)	IC50 (BX-795) [µM]	AUC (SB-505124)	IC50 (SB-505124) [µM]
NAMALWA (Burkitt lymphoma, suspension)	0.981	> 10	0.68	1.85	0.792	7.52	0.669	6.8	0.145	0.0659	0.909	> 5.12	0.969	> 5	0.986	> 10
NB1 (neuroblastoma, semi-adherent)	0.973	> 10	0.921	> 10.2	0.832	14.7	0.721	11.4	0.863	> 10.2	0.951	> 5.12	0.931	> 5	0.955	> 10
NB5 (neuroblastoma, adherent)	0.912	> 10	0.982	> 10.2	0.94	> 20	0.883	> 40	0.831	6.61	0.981	> 5.12	0.796	2.37	0.977	> 10
NB6 (neuroblastoma, adherent)	0.982	> 10	0.899	> 10.2	0.978	> 20	0.807	26.4	0.382	0.28	0.734	1.76	0.811	3.44	0.981	> 10
NB10 (neuroblastoma, adherent)	0.88	9.99	0.983	> 10.2	0.983	> 20	0.859	31.8	0.791	4.48	0.985	> 5.12	0.882	> 5	0.978	> 10
NB13 (neuroblastoma, adherent)	0.35	0.254	0.99	> 10.2	0.967	> 20	0.822	19.9	0.857	6.85	0.946	> 5.12	0.871	3.8	0.99	> 10
NB14 (neuroblastoma, adherent)	0.918	> 10	0.988	> 10.2	0.823	10.9	0.989	> 40	0.916	> 10.2	0.978	> 5.12	0.668	0.891	0.958	> 10
NB(TU)1-10 (neuroblastoma, adherent)	0.985	> 10	0.993	> 10.2	0.993	> 20	0.639	5.72	0.963	> 10.2	0.98	> 5.12	0.992	> 5	0.993	> 10
NCI-H23 (lung adenocarcinoma, adherent)	0.939	> 10	0.954	> 10.2	0.778	8.03	0.956	> 40	0.978	> 10.2	0.985	> 5.12	0.894	> 5	0.985	> 10
NCI-H69 (small cell lung carcinoma, suspension)	0.984	> 10	0.861	> 10.2	0.732	6.24	0.96	> 40	0.521	0.736	0.983	> 5.12	0.892	> 5	0.956	> 10
NCI-H82 (small cell lung carcinoma, suspension)	0.981	> 10	0.98	> 10.2	0.817	10.4	0.845	26.5	0.782	4.05	0.972	> 5.12	0.741	1.47	0.965	> 10
NCI-H187 (small cell lung carcinoma, suspension)	0.988	> 10	0.815	6.22	0.981	> 20	0.596	4.7	0.569	1	0.987	> 5.12	0.887	> 5	0.983	> 10
NCI-H209 (small cell lung carcinoma, suspension)	0.952	> 10	0.934	> 10.2	0.791	9.74	0.974	> 40	0.783	4.65	0.982	> 5.12	0.852	4.3	0.977	> 10
NCI-H211 (small cell lung carcinoma, adherent)	0.964	> 10	0.978	> 10.2	0.739	5.9	0.575	3.99	0.243	0.119	0.929	> 5.12	0.834	3.13	0.962	> 10
NCI-H226 (lung squamous cell carcinoma, adherent)	0.965	> 10	0.987	> 10.2	0.834	13.9	0.699	9.39	0.831	6.93	0.871	> 5.12	0.896	> 5	0.986	> 10
NCI-H322M (lung adenocarcinoma, suspension)	0.958	> 10	0.987	> 10.2	0.914	> 20	0.808	27	0.744	3.85	0.927	> 5.12	0.941	> 5	0.981	> 10

Cell Line	AUC (Tretinoin)	IC50 (Tretinoin) [µM]	AUC (GSK690693)	IC50 (GSK690693) [µM]	AUC (UNC0638; [1])	IC50 (UNC0638; [1]) [µM]	AUC (UNC0638; [2])	IC50 (UNC0638; [2]) [µM]	AUC (PI-103)	IC50 (PI-103) [µM]	AUC (WH-4-023)	IC50 (WH-4-023) [µM]	AUC (BX-795)	IC50 (BX-795) [µM]	AUC (SB-505124)	IC50 (SB-505124) [µM]
NCI-H345 (small cell lung carcinoma, suspension)	0.99	> 10	0.99	> 10.2	0.98	> 20	0.844	30.7	0.867	10.1	0.988	> 5.12	0.99	> 5	0.986	> 10
NCI-H446 (small cell lung carcinoma, semi-adherent)	0.982	> 10	0.579	1.07	0.705	4.97	0.618	5.42	0.293	0.159	0.796	2.59	0.918	> 5	0.886	> 10
NCI-H524 (small cell lung carcinoma, suspension)	0.967	> 10	0.92	> 10.2	0.799	8.45	0.843	24.1	0.442	0.452	0.99	> 5.12	0.772	1.73	0.811	4.61
NCI-H526 (small cell lung carcinoma, suspension)	0.974	> 10	0.833	6.22	0.989	> 20	0.804	18.9	0.63	1.43	0.989	> 5.12	0.764	1.74	0.988	> 10
NCI-H720 (lung carcinoid, suspension)	0.992	> 10	0.991	> 10.2	0.977	> 20	0.977	> 40	0.991	> 10.2	0.989	> 5.12	0.849	3.27	0.989	> 10
NCI-H747 (large intestine, adherent)	0.979	> 10	0.777	5.07	0.73	6.62	0.702	10.6	0.363	0.245	0.81	3.43	0.933	> 5	0.942	> 10
NCI-H847 (small cell lung carcinoma, adherent)	0.986	> 10	0.885	7.55	0.845	10.6	0.797	14.9	0.171	0.0855	0.984	> 5.12	0.871	3.26	0.975	> 10
NCI-H1092 (small cell lung carcinoma, suspension)	0.987	> 10	0.918	> 10.2	0.968	> 20	0.802	19.8	0.846	7.59	0.983	> 5.12	0.949	> 5	0.976	> 10
NCI-H1155 (large cell lung carcinoma, suspension)	0.973	> 10	0.98	> 10.2	0.99	> 20	0.982	> 40	0.912	10.2	0.988	> 5.12	0.858	3	0.984	> 10
NCI-H1304 (small cell lung carcinoma, suspension)	0.952	> 10	0.855	9.16	0.903	> 20	0.909	> 40	0.474	0.541	0.988	> 5.12	0.973	> 5	0.986	> 10
NCI-H1395 (lung adenocarcinoma, adherent)	0.969	> 10	0.946	> 10.2	0.765	9.7	0.764	19.2	0.705	2.97	0.922	> 5.12	0.925	> 5	0.973	> 10
NCI-H1436 (small cell lung carcinoma, suspension)	0.985	> 10	0.87	> 10.2	0.798	11.1	0.605	5.06	0.844	8.88	0.985	> 5.12	0.943	> 5	0.948	> 10
NCI-H1648 (lung adenocarcinoma, adherent)	0.831	6.91	0.928	> 10.2	0.937	> 20	0.832	27.8	0.442	0.44	0.559	0.467	0.929	> 5	0.939	> 10
NCI-H1694 (small cell lung carcinoma, suspension)	0.96	> 10	0.966	> 10.2	0.964	> 20	0.721	10.5	0.816	5.63	0.977	> 5.12	0.876	4.91	0.97	> 10
NCI-H1770 (non-small cell lung carcinoma, suspension)	0.988	> 10	0.992	> 10.2	0.99	> 20	0.874	30.9	0.992	> 10.2	0.991	> 5.12	0.921	> 5	0.991	> 10
NCI-H1836 (small cell lung carcinoma, suspension)	0.972	> 10	0.961	> 10.2	0.949	> 20	0.769	16.5	0.561	0.956	0.957	> 5.12	0.959	> 5	0.967	> 10
